Reference: a collection of fitness landscapes (doi:10.1038/s41467-024-54723-y)
The full ranking holds about 18,000 sequences; the median of “TetR repression strength (sort-seq, GFP reporter)” is about 0.23, and the highest 2% start at about 0.68. The list shows a part of the results.

target: TetR (class B, Tn10) (UniProt P04483); assay: TetR repression strength (sort-seq, GFP reporter) (relative to tetO2 = 1); higher = stronger repression; conditions: E. coli
Summary of the method: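 Three independent transformations of E. coli SIG10-MAX were made with a low-copy plasmid library randomizing eight operator positions between a constitutive promoter and sfGFP, with constitutive TetR. Following 5 h at 37 °C in LB plus 50 µg/mL chloramphenicol, 10^6 cells went through FACS into 13 fluorescence bins, and each bin was sequenced by Illumina. Repression strength was defined as the top bin index plus one minus the read-weighted mean bin, divided by the unaltered operator's value. Averages included only members reaching ≥30 reads in all replicates with a CV ≤0.5.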

Sequence of UniProt P04483 (P04483 whole entry): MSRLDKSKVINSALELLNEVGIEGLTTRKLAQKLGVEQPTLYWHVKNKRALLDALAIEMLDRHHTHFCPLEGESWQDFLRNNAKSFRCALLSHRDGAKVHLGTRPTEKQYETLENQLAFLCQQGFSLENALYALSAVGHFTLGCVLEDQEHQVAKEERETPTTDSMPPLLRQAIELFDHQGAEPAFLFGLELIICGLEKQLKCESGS

Row | Sequence | TetR repression strength
1 | TCCCCTGGAGTCAAGGAGA | 0.32
2 | TCCCTGTCAGTTACTGAGA | 0.327
3 | TCCCTGAGAGTCTTAGAGA | 0.158
4 | TCCCACGGAGTATCGGAGA | 0.277
5 | TCCCAGTCAGTGACAGAGA | 0.416
6 | TCCCCTTTAGTGCCCGAGA | 0.556
7 | TCCCGGGAAGTGTAGGAGA | 0.387
8 | TCCCAGATAGTAGTCGAGA | 0.103
9 | TCCCGACTAGTAAGGGAGA | 0.343
10 | TCCCTTCAAGTTAGGGAGA | 0.226
11 | TCCCCGAAAGTCGGTGAGA | 0.193
12 | TCCCAAGAAGTTTTTGAGA | 0.192
13 | TCCCGAATAGTGTGGGAGA | 0.597
14 | TCCCGTAGAGTCCGGGAGA | 0.231
15 | TCCCGGCTAGTGGTAGAGA | 0.269
16 | TCCCTTTAAGTCTGCGAGA | 0.342
17 | TCCCAGTAAGTGCGGGAGA | 0.118
18 | TCCCTGAGAGTGTGCGAGA | 0.197
19 | TCCCGCATAGTGCAAGAGA | 0.37

Row | Sequence | TetR repression strength
20 | TCCCGTGAAGTGTATGAGA | 0.338
21 | TCCCTCATAGTTGTTGAGA | 0.298
22 | TCCCTAGGAGTAGGTGAGA | 0.294
23 | TCCCCGAGAGTTCAAGAGA | 0.485
24 | TCCCGCGAAGTGGTGGAGA | 0.169
25 | TCCCTGAGAGTGGAGGAGA | 0.0734
26 | TCCCGTCAAGTGAAAGAGA | 0.311
27 | TCCCGTTAAGTGCTAGAGA | 0.685
28 | TCCCCGGCAGTTTCAGAGA | 0.209
29 | TCCCGCCAAGTAACTGAGA | 0.305
30 | TCCCATATAGTGTCTGAGA | 0
31 | TCCCAGGAAGTGGATGAGA | 0.286
32 | TCCCGCCGAGTGGGCGAGA | 0.329
33 | TCCCTCGTAGTGAGTGAGA | 0.507
34 | TCCCCACAAGTCGCCGAGA | 0.232
35 | TCCCTTTCAGTTATTGAGA | 0.55
36 | TCCCGTAGAGTAAGGGAGA | 0.123
37 | TCCCGATCAGTAGTGGAGA | 0.155
38 | TCCCTTTGAGTCTTTGAGA | 0.181

Row | Sequence | TetR repression strength
39 | TCCCATTGAGTCGCCGAGA | 0.226
40 | TCCCGCTCAGTGGCCGAGA | 0.397
41 | TCCCGACCAGTCTGGGAGA | 0.205
42 | TCCCGGAGAGTTCGGGAGA | 0.293
43 | TCCCGGTCAGTGACCGAGA | 0.715
44 | TCCCGTCAAGTATTGGAGA | 0.418
45 | TCCCGCTAAGTAGGCGAGA | 0.0386
46 | TCCCTCATAGTATCGGAGA | 0.223
47 | TCCCCATTAGTCTCAGAGA | 0.3
48 | TCCCAAGGAGTATGAGAGA | 0.187
49 | TCCCGCTGAGTGAAGGAGA | 0.262
50 | TCCCCTGGAGTTGATGAGA | 0.147
51 | TCCCGCGTAGTGGGTGAGA | 0.218
52 | TCCCGGGGAGTGACGGAGA | 0.143
53 | TCCCGGTCAGTGTTCGAGA | 0.627
54 | TCCCTTCGAGTGTAGGAGA | 0.202
55 | TCCCATTGAGTTTATGAGA | 0.502
56 | TCCCAGAGAGTAGAAGAGA | 0.215
